± gives the standard error. Variants at the floor of the assay are shown more often than the library holds them.
B1: glmS ribozyme (parent)
chain: AUAAAAGCGCCAGAACUACAGAAAUGUAGUUGACGAGGAGGAGGUUUAUCGAAUUUUCGGCGGAUGCCUCCAAA

Assays:
Conditions in all cases: with glucosamine-6-phosphate
[1] = variants of: B1; test: self-cleavage kobs at 640 uM GlcN6P; higher = faster cleavage; RNA array
Method in brief: (§1)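 Barcoded glmS ribozyme variants on sequenced MiSeq chips were transcribed in situ by E. coli RNA polymerase and tracked through a hybridised Cy3 probe at 37 °C. Glucosamine-6-phosphate (40 μM to 10 mM) in HEPES/KCl/Mg(OAc)2 buffer was flowed in, and tiles were imaged over ~14 h. Signals were normalised to baseline and to non-cleaving reference variants; per-tile medians were fit to one- or two-exponential decays to give kobs. kcat and KM came from weighted Michaelis–Menten fits across concentrations.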

[2] = variants of: B1; test: self-cleavage kobs at 2500 uM GlcN6P; higher = faster cleavage; RNA array
Method in brief: as §1

[3] = variants of: B1; test: self-cleavage kobs at 10000 uM GlcN6P; higher = faster cleavage; RNA array
Method in brief: as §1

[4] = variants of: B1; test: self-cleavage kobs at 160 uM GlcN6P; higher = faster cleavage; RNA array
Method in brief: as §1

Variant | self-cleavage kobs at 640 uM GlcN6P [1] [s⁻¹] | self-cleavage kobs at 2500 uM GlcN6P [2] [s⁻¹] | self-cleavage kobs at 10000 uM GlcN6P [3] [s⁻¹] | self-cleavage kobs at 160 uM GlcN6P [4] [s⁻¹]
G35C C61G C68U | < 1e-05 | < 1e-05 | – | –
G38U G63C | < 1e-05 | < 1e-05 | < 1e-05 | –
G37C G40U U46G G63U | < 1e-05 | – | < 1e-05 | –
G37A A53C C71U | 3.79e-05 ± 1.4e-05 | 6.98e-05 ± 1.5e-05 | – | –
G35U C50U A53U | < 1e-05 | – | – | –
C34G A53G | < 1e-05 | < 1e-05 | – | < 1e-05
G35U G38C G40C U54C | < 1e-05 | – | – | –
G38U C50A C61U | < 1e-05 | – | – | –
C34A G35C U69A | < 1e-05 | < 1e-05 | < 1e-05 | –
C34G U56G | < 1e-05 | – | < 1e-05 | –
G35A A36U G41A C58A | < 1e-05 | < 1e-05 | – | –
C34A G35A | < 1e-05 | < 1e-05 | < 1e-05 | < 1e-05
C34A G35U | < 1e-05 | – | – | < 1e-05
G37U G44A | < 1e-05 | < 1e-05 | – | < 1e-05
G35C A52U C67U C68A | < 1e-05 | – | – | –
A36G A64U C71U | < 1e-05 | < 1e-05 | – | < 1e-05
C34G G63U | < 1e-05 | < 1e-05 | < 1e-05 | < 1e-05
C34G G63A | < 1e-05 | < 1e-05 | < 1e-05 | < 1e-05
A36C G60C | < 1e-05 | – | – | –
A33U U57C C67G | < 1e-05 | – | < 1e-05 | –
A36C U46G U54A U55G | < 1e-05 | – | – | –
G37U U46A G60A | < 1e-05 | – | – | –

Variant | self-cleavage kobs at 640 uM GlcN6P [1] [s⁻¹] | self-cleavage kobs at 2500 uM GlcN6P [2] [s⁻¹] | self-cleavage kobs at 10000 uM GlcN6P [3] [s⁻¹] | self-cleavage kobs at 160 uM GlcN6P [4] [s⁻¹]
A36C U46G A52G G60U | < 1e-05 | < 1e-05 | – | < 1e-05
C34G G40C U46A U49A | < 1e-05 | – | – | –
C34A U47C | < 1e-05 | < 1e-05 | – | < 1e-05
A36G G43U | < 1e-05 | – | < 1e-05 | –
G37C A48U A52G | < 1e-05 | < 1e-05 | – | –
A36U A52G C71A | < 1e-05 | – | – | < 1e-05
G35U G43U G51C U55G C71A | < 1e-05 | < 1e-05 | < 1e-05 | –
C34U U54C | < 1e-05 | < 1e-05 | – | < 1e-05
C34G G51C A52U C61U | < 1e-05 | < 1e-05 | – | –
C34G G60A | < 1e-05 | < 1e-05 | – | < 1e-05
G38C U47C C58U A64C C67G | < 1e-05 | < 1e-05 | – | –
G38A A39C G44U U65G C70G | < 1e-05 | – | – | –
G35A U54C A64C | < 1e-05 | – | – | –
G38A A39C G40U G43A U49G U54C | < 1e-05 | < 1e-05 | – | < 1e-05
G37U A42C C50A A64U | < 1e-05 | – | – | –
G35A U55G G63A A64G | < 1e-05 | – | – | –
G38U G51U G60C | < 1e-05 | – | < 1e-05 | < 1e-05
G38A U45G U46C C50G A52C | < 1e-05 | < 1e-05 | – | –
G38C G63A | < 1e-05 | < 1e-05 | – | < 1e-05
G35C A48G A53G | < 1e-05 | – | – | –
A36U U56G U65C | < 1e-05 | – | – | –
A36G U55G C67G | < 1e-05 | – | – | –

Variant | self-cleavage kobs at 640 uM GlcN6P [1] [s⁻¹] | self-cleavage kobs at 2500 uM GlcN6P [2] [s⁻¹] | self-cleavage kobs at 10000 uM GlcN6P [3] [s⁻¹] | self-cleavage kobs at 160 uM GlcN6P [4] [s⁻¹]
A36G G41C | < 1e-05 | – | – | –
G38C G43U A64C | < 1e-05 | < 1e-05 | – | –
G38U A52C A53C C68A C71U | 0.000617 ± 0.00024 | – | – | –
G35C A36G A39G A52U G63C U65C | < 1e-05 | < 1e-05 | – | < 1e-05
C34U U47G | < 1e-05 | – | – | < 1e-05
G35A G59U G62A | < 1e-05 | < 1e-05 | – | –
A33U G44U A48C | < 1e-05 | – | – | –
G35A C67G | < 1e-05 | < 1e-05 | – | < 1e-05
C34A G44U U65G | < 1e-05 | < 1e-05 | – | < 1e-05
G37A G43C A64U | < 1e-05 | – | – | –
C34U G41C U54C | < 1e-05 | < 1e-05 | – | < 1e-05
G37A U54C C70U | 0.000626 ± 0.00016 | 0.00117 ± 0.00025 | – | –
A36C A39U U54A C67G | < 1e-05 | < 1e-05 | – | –
A36C A39C A52U | < 1e-05 | – | – | –
C34A G66U | < 1e-05 | – | < 1e-05 | < 1e-05
C34G G43U G59U | < 1e-05 | < 1e-05 | – | < 1e-05
G38U G60C | < 1e-05 | – | – | < 1e-05
A36U U45A G63U | < 1e-05 | < 1e-05 | – | –
A33U U49G | < 1e-05 | – | – | < 1e-05
G35U A39U | < 1e-05 | < 1e-05 | – | < 1e-05
G35U U57A | < 1e-05 | – | < 1e-05 | –
G38A G44C U47A A48C G63U | < 1e-05 | – | – | –

Variant | self-cleavage kobs at 640 uM GlcN6P [1] [s⁻¹] | self-cleavage kobs at 2500 uM GlcN6P [2] [s⁻¹] | self-cleavage kobs at 10000 uM GlcN6P [3] [s⁻¹] | self-cleavage kobs at 160 uM GlcN6P [4] [s⁻¹]
A36G G38U C50A G62A | < 1e-05 | – | – | –
G35U U45G C58U C67U | < 1e-05 | < 1e-05 | – | –
G37C U56A U69G C70U | < 1e-05 | – | – | –
G38U U46C U55C | < 1e-05 | – | – | –
G38C U47G | < 1e-05 | < 1e-05 | – | < 1e-05
C34U A39C C50G | < 1e-05 | – | – | –
C34A G40C C61U | < 1e-05 | – | – | –
A36U G41A A48U | < 1e-05 | – | – | –
G38U G44U G51C | < 1e-05 | < 1e-05 | – | –
A36U G60U | < 1e-05 | < 1e-05 | < 1e-05 | –
G35C G38C G59U | < 1e-05 | – | – | –
G35A A36C U57C C61U | < 1e-05 | < 1e-05 | – | –
G35C A39U G60U | < 1e-05 | < 1e-05 | – | –
G35A G43U U49A G66U C71U | < 1e-05 | < 1e-05 | – | –
G35C G40U C70G | < 1e-05 | < 1e-05 | – | < 1e-05
G38A G60C | < 1e-05 | < 1e-05 | < 1e-05 | –
G38C A64U | < 1e-05 | < 1e-05 | < 1e-05 | < 1e-05
G35C G40U A52U G63U | < 1e-05 | < 1e-05 | – | –
C34G A39G | < 1e-05 | < 1e-05 | < 1e-05 | < 1e-05
G35C A53G U57A | < 1e-05 | – | – | –
G35U U47C | < 1e-05 | < 1e-05 | < 1e-05 | < 1e-05
G35U U47G | < 1e-05 | < 1e-05 | – | < 1e-05

Variant | self-cleavage kobs at 640 uM GlcN6P [1] [s⁻¹] | self-cleavage kobs at 2500 uM GlcN6P [2] [s⁻¹] | self-cleavage kobs at 10000 uM GlcN6P [3] [s⁻¹] | self-cleavage kobs at 160 uM GlcN6P [4] [s⁻¹]
G38A G41A U45C A52G | < 1e-05 | – | – | < 1e-05
A36G A42G U54A G59U | < 1e-05 | < 1e-05 | < 1e-05 | –
A36U A39U U45C C58U | < 1e-05 | < 1e-05 | – | –
C34G U49C | < 1e-05 | < 1e-05 | < 1e-05 | < 1e-05
C34A U49G C67U | < 1e-05 | – | – | < 1e-05
G38U U54A | < 1e-05 | < 1e-05 | – | < 1e-05
A36C G41C U47C | < 1e-05 | – | – | –
A36U G43A C58U | < 1e-05 | < 1e-05 | – | < 1e-05
A36G G44U C50A A52U C67U | < 1e-05 | < 1e-05 | – | –
C34A C61U G62A | < 1e-05 | < 1e-05 | – | –
G35C G43U A52U C61U | < 1e-05 | < 1e-05 | – | –
C34G U57C | < 1e-05 | – | – | –
G35C A36U | < 1e-05 | < 1e-05 | < 1e-05 | < 1e-05
G37C G44A U57C G66C | < 1e-05 | – | – | < 1e-05
G38U U47C U49A C50U | < 1e-05 | – | – | –
C34G G41U U57C | < 1e-05 | < 1e-05 | – | < 1e-05
G35A U57A | < 1e-05 | < 1e-05 | < 1e-05 | < 1e-05
C34U G44U A53G C61U | < 1e-05 | < 1e-05 | – | –
G38A G40U G43A A52C | < 1e-05 | – | – | –
G35C G38A | < 1e-05 | < 1e-05 | – | –
C34U G38U G43C | < 1e-05 | – | – | –
A36U C58A G59U | < 1e-05 | – | – | –

From the supplement of paper PMC7125110
